Data published in PubChem BioAssay AID686978 (National Center for Advancing Translational Sciences (NCATS), 2013).
Among all 420,000 compounds or so, about 64,000 (15%) were called active. Inconclusive results, whose numbers are uncertain, are shown with a selection of clear calls. The call rests on the fitted dose curve; in most records, active means well fitted inhibition curve with a large enough effect; inconclusive means small, poorly fitted or top-dose-only effect; inactive means flat fitted curve, though single readings scatter. Potencies of inconclusive entries are left out as doubtful fits.
Potency means the concentration at half of the fitted maximal effect; tags describe the fitted curve by direction and shape.

Assay: qHTS for Inhibitors of human tyrosyl-DNA phosphodiesterase 1 (TDP1): qHTS in cells in absence of CPT; further: nearly all actives have a fitted effect of over 55% in size
Conditions: DT40 Tdp1-/- hTDP1 cells, no CPT, ATP luminescence, 48 h; series mostly up to 46.2 µM
How it was run: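 No-CPT arm: Tdp1-/-;hTDP1 DT40 cells (400/well) plus compounds, incubated ≥48 hr at 37 °C. Readout CellTiter-Glo luminescence.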
In the case of `Cn1ncc2c(Nc3ccccc3Cl)nc(Nc3ccccc3Cl)nc21`, the Potency is reported as inconclusive [inhibitor, single point].
In the case of `COC(=O)c1cc(C)nc(Nc2nc(C(N)Cc3ccc(Cl)cc3)cs2)n1` (stereo not given), the Potency is reported as inconclusive [inhibitor, partial curve].
For `Cc1ccc(C)c(S(=O)(=O)N2CCCC2CNC(=O)C(=O)NC2CCCCCC2)c1` (stereo not given), the Potency was active: 23.1 µM.
For `CCOC(=O)c1ccc(NC(=O)CN(c2ccc(C)cc2)S(=O)(=O)c2c(C)nn(C)c2C)cc1`, the Potency was inconclusive [inhibitor, single point].
For `COC(CNC(=O)CCc1c(C)nc2c(-c3ccccc3)c(C)nn2c1C)OC`, the Potency was “inactive”.
For `Cc1cc(C)cc(NC(=O)c2cc(Cl)sc2Cl)c1`, the Potency was inconclusive [inhibitor, single point].
In the case of `COc1cc2[nH]c(=O)n(CCC(=O)N3CCN(Cc4ccccc4)CC3)c(=O)c2cc1OC`, the Potency is reported as inconclusive [inhibitor, partial curve].
In the case of `COC(=O)c1cc(Br)ccc1-c1ccc(/C=N/n2nnnc2N)o1`, the Potency is reported as inconclusive [inhibitor, partial curve].
For `COc1ccc(NC(=O)c2[nH]c(C)c(C(C)=O)c2C)cc1S(=O)(=O)Nc1ccc(Br)cc1`, the Potency was inconclusive [inhibitor, single point].
For `O=C(O)Cc1sc(NCCc2ccccc2)nc1-c1ccc(F)cc1`, the Potency was “inactive”.
In the case of `O=C1CN(c2ccc(F)cc2)C(=S)N1c1ccccc1`, the Potency is reported as “inactive”.
For `CCOc1ccc(C(=O)NC(=S)Nc2ccc(N3CCC(C)CC3)cc2)cc1[N+](=O)[O-]`, the Potency was active: 11.6 µM.
With `CCC(C)c1ccccc1OCCCN(C)Cc1ccccc1` (stereo not given) the Potency was inconclusive [inhibitor, single point].
With `O=C(NCC1CCCO1)c1ccc2c(c1)N(Cc1ccc(F)cc1)CCS2` (stereo not given) the Potency was inconclusive [inhibitor, single point].
With `COc1ccc2c(c1)[C@H]1[C@H](CO2)[C@H](c2ccccc2)[C@]2(C)C(=O)Nc3ccccc3C(=O)N12` the Potency was inconclusive [inhibitor, single point].
With `CC(C)(C)CC(=O)Nc1cc2c3c(c1)CCN3C(=O)CC2` the Potency was “inactive”.
With `CC(=O)C1=C(C)NC(SCc2cccc3ccccc23)=C(C#N)C1c1ccco1` (stereo not given) the Potency was inconclusive [inhibitor, single point].
With `Cc1ccc(NS(=O)(=O)c2ccc(C(=O)NCCCN3CCCC3=O)cc2)cc1` the Potency was inconclusive [inhibitor, partial curve, poor fit].
In the case of `Cc1ccc2c(c1)C(=O)N1c3cc(C)c(C)cc3NC(=O)C1C(=O)N2` (stereo not given), the Potency is reported as “inactive”.
With `CCCc1ccc(C(O)c2ncc(-c3ccccc3F)[nH]2)cc1` (stereo not given) the Potency was inconclusive [inhibitor, single point].
For `CCCn1c(=N)c(S(=O)(=O)c2ccccc2)cc2c(=O)n3ccccc3nc21`, the Potency was inconclusive [inhibitor, single point].
With `CCC(=O)N1c2ccc(S(=O)(=O)N3CCCCCC3)cc2CC1C` (stereo not given) the Potency was inconclusive [inhibitor, single point].
In the case of `C=CCN(CC=C)C(=S)NC(=O)/C=C/c1ccc(C)cc1`, the Potency is reported as inconclusive [inhibitor, single point].
With `CCn1ccnc1CN(C)C(=O)c1cc(COc2ccc(Cl)cc2OC)on1` the Potency was “inactive”.
In the case of `Cc1ccc2sc(NC(=O)c3cccc(N4C(=O)CCC4=O)c3)nc2c1C`, the Potency is reported as inconclusive [inhibitor, single point].
In the case of `COc1ccccc1NC(=O)c1c(N=Cc2cccc([N+](=O)[O-])c2)cnn1C`, the Potency is reported as “inactive”.
With `CCCc1cc(=O)oc2c(C)c(OC(C)C(=O)NCCN3CCOCC3)ccc12` (stereo not given) the Potency was “inactive”.
With `CCOC(=O)c1cnn(-c2nc(SC)nc3sc4c(c23)CCC4)c1N` the Potency was inconclusive [inhibitor, single point].
For `CC(C)NC(=O)COC(=O)CNC(=O)C1CCCCC1`, the Potency was “inactive”.
With `Cc1nccn1-c1cc(C(C)(C)C)nc2c(-c3ccccc3)cnn12` the Potency was inconclusive [inhibitor, single point].
For `CCOc1ccccc1NC(=O)c1ccc(OCC)c([N+](=O)[O-])c1`, the Potency was “inactive”.
In the case of `CCc1c(-c2ccc(F)cc2)ncn1Cc1cccc(-c2ccccc2)c1`, the Potency is reported as active: 11.6 µM.
With `O=[N+]([O-])c1cc2c(c3cccnc13)COCO2` the Potency was inconclusive [inhibitor, partial curve].
For `O=C(Nc1cccc(S(=O)(=O)N2CCOCC2)c1)c1ccc2ccccc2n1`, the Potency was inconclusive [inhibitor, single point].
For `COc1ccccc1CN1CCOc2ccc(CN3CCC(Oc4cccnc4)CC3)cc2C1`, the Potency was inconclusive [inhibitor, single point].
With `O=C(CSc1nnnn1-c1ccc2c(c1)CCC2)NCc1cccs1` the Potency was inconclusive [inhibitor, partial curve].
With `CCOc1ccc(N2C(=O)CS/C2=N/NC(=O)COc2ccc3ccccc3c2)cc1` the Potency was inconclusive [inhibitor, single point].
With `CN(CC(=O)NCc1ccncc1)S(=O)(=O)c1ccc2ccccc2c1` the Potency was inconclusive [inhibitor, single point].
For `Nc1c(-c2nc(-c3ccccc3Cl)no2)nnn1-c1ccccc1F`, the Potency was “inactive”.
In the case of `CN(C(=O)c1cccc(C(=O)N(C)c2ccccc2)c1)c1ccccc1`, the Potency is reported as “inactive”.
With `C[C@@H]1CCC[C@@]2(O[C@H](CCO)C[C@@H](O)[C@@H]2O)O1` the Potency was “inactive”.
With `CCOc1ccc2[nH]c3nc(SCC(=O)NCC4CCCO4)nnc3c2c1` (stereo not given) the Potency was inconclusive [inhibitor, single point].
For `Cc1ccccc1C(=O)NC(=S)Nc1ncccn1`, the Potency was “inactive”.
With `CCOC(=O)Cc1c(C)nc2c(-c3cccc(Br)c3)cnn2c1C` the Potency was active: 20.6 µM.
In the case of `CCCCOc1cccc(C(=O)Nc2ccc(NC(=O)c3cccs3)cc2)c1`, the Potency is reported as inconclusive [inhibitor, partial curve].
